Data reported in PubChem BioAssay AID434955 (Southern Research Specialized Biocontainment Screening …, 2010).
The other results are listed elsewhere or left out. These are further read-outs of the screen, such as a control signal, another cell line or another target. No call is given for them. Most of these compounds were active or inconclusive in the main read-out, so they are no random draw.

Assay: beta-lactam sensitization of Mtb H37Rv, H37Rv (AID 434955);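 also: growth measured after seven days incubation then overnight dye step; 0% = bacteria only wells and 100% = bacteria with antibiotic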
Details: M. tuberculosis H37Rv growth with meropenem, percent inhibition; measured here: primary screen without meropenem; at 25 µM

SMILES | inhibition [%]
O=C(Nc1ccc(-n2cccn2)cc1)C1CCN(Cc2ccccn2)CC1 | -8.74
COc1ccc(-c2csc3ncnc(N4CCN(c5cccc(Cl)c5)CC4)c23)cc1 | -0.6
CCn1cc(C(=O)NN)c(=O)c2cc(F)c(N3CCN(C)CC3)cc21 | 4.97
O=C(Cn1ncc2c(=O)oc3ccccc3c21)NCCCN1CCCC1=O | -13.1
O=C(Nc1cccc(NC(=O)c2cccs2)c1)c1ccc(Br)o1 | 4.61
Cc1cc2[nH]c(=O)c(=O)[nH]c2cc1S(=O)(=O)NCc1ccc(Cl)cc1 | -6.54
C=CC(=C)CC(NC)c1ccccc1 (stereo unspecified) | 4.39
COc1ccc(/C=N/NC(=O)c2ccc3c(c2)OCCO3)c(OC)c1 | 5.21
O=C(CSc1ccc2nnc(-c3ccccn3)n2n1)Nc1ccccc1 | 1.17
CC(C)OCCCNc1ncnc2c1[nH]c1ccccc12 | 1.73
CCn1cc(C(=O)NCC2CCCO2)c(=O)c2cc(S(=O)(=O)N3CCC(C)CC3)ccc21 (stereo unspecified) | -0.99
CCOC(=O)c1sc2nc(C)nc(SC(C)C(=O)NC3CC3)c2c1C (stereo unspecified) | 61.1
CCc1nnc(NC(=O)CSc2nnc(Cc3ccccc3)n2-c2ccc(OC)cc2)s1 | -0.28
CN(Cc1ccncn1)C(=O)C1CCC(=O)N(Cc2cccc(C(F)(F)F)c2)C1 (stereo unspecified) | 2.04
CC1(C)CCN2CCC(C)(C)c3c(O)ccc1c32 | 0.32
O=C(COCc1cc(-c2ccco2)on1)NC1CCCCC1 | -2.83
COc1ccc(O)c(/C=N/NC(=O)CN2CCS(=O)(=O)CC2)c1 | -1.95
Cc1ccc(S(=O)(=O)N2CCN=C2SCc2c(F)cccc2Cl)cc1 | -1.67
Cc1[nH]n(-c2ccccc2)c(=O)c1/C=N/NC(=O)c1cccc([N+](=O)[O-])c1 | 9.39
CCCCc1nc2cc(C(=O)N3CCCCC3CCO)ccc2o1 (stereo unspecified) | 3.44
Cc1ccc(C)c(N2CCN(C(=O)CCS(=O)(=O)c3ccc4c(c3)CCN4C(=O)C3CC3)CC2)c1 | 2.28
Cc1ccc2c(c1)NC(=O)C(CC(=O)NC1CCCCC1C)O2 (stereo unspecified) | -5.29

SMILES | inhibition [%]
Cc1ccc2c(c1)CCCN2C(=O)c1cc2ccccc2oc1=O | 27.6
COc1ccc2sc(-c3ccc(SC)cc3)c(C#CC(C)(C)O)c2c1 | 65.9
O=C(O)CCCN1C(=O)/C(=C/c2ccc(-c3nc4ccccc4s3)o2)SC1=S | 17.2
COCCn1c(N2CCN(c3ccc(OC)cc3)CC2)nc2c1c(=O)n(C)c(=O)n2C | 0.85
O=C(NC1CCCN(c2ccc(C(F)(F)F)cn2)C1)c1cc(Cl)ccc1F (stereo unspecified) | 5.81
CCCOC1CCCN(C(=O)c2cc(COc3ccc(F)c(F)c3)on2)C1 (stereo unspecified) | 13.8
N#Cc1c(SCC(=O)O)nc(N2CCCCC2)c2c1CCCC2 | 23.1
COc1ccc(OC)c(N(CC(=O)NC2CCCCCC2)S(=O)(=O)c2ccc(C)cc2)c1 | 4.92
Cc1occc1C(=O)N1CCC2(CCCN(Cc3ccc(F)c(F)c3)C2)C1 (stereo unspecified) | 13.6
Cc1oc2c(CN3CCCC(C)C3)c(O)ccc2c(=O)c1-c1ccccc1 (stereo unspecified) | 0.44
COc1ccc(CCNC(=O)c2c(C)nn(-c3ccccc3)c2Cl)cc1 | -4.93
CCOC(=O)N1CCN(c2ccncc2S(=O)(=O)N2CCCCC2)CC1 | -0.06
Cc1cc(C)nc(CCNC(=O)CC2C(=O)NCCN2Cc2ccc(F)cc2Cl)n1 (stereo unspecified) | -4.3
CC(C)Oc1ccc(N2CC(C(=O)Nc3ccccc3F)CC2=O)cc1 (stereo unspecified) | 33
Cc1cccc(-n2nc([N+](=O)[O-])c(=NC3CCN(Cc4ccccc4)CC3)n2O)c1 | -8.04
O=C(c1ccc(S(=O)(=O)N2CCCC2)cc1)N1CCN(c2ccccc2F)CC1 | -2.34
CCOc1ccc(NC(=O)c2ccccc2SC)cc1 | 7.12
CCCn1cc(S(=O)(=O)c2ccccc2)c(=O)c2cc(CC)ccc21 | 4.99
CCOC(=O)C1CCCCN1Cc1ccc(F)c(Br)c1 (stereo unspecified) | 2.82
CCOc1cccc2sc(NC(=O)CCS(=O)(=O)c3ccccc3)nc12 | 23.1
O=C(CSc1ccc2nnc(-c3ccccn3)n2n1)Nc1ccccc1F | -0.82
CC(C)CC(=O)Nc1ccc(F)c(Cl)c1 | -11.3

SMILES | inhibition [%]
COc1ccc(C(=O)n2c(SC)nc3cc4c(cc32)OCCO4)cc1 | 12.6
O=C(c1cccn2c(=O)c3cc(Cl)ccc3nc12)N1CCOCC1 | 3.83
Cc1nnc(SCC(=O)N2CCCC(N3CCN(c4ccc(F)cc4)CC3)C2)o1 (stereo unspecified) | -1.06
CCOc1ccc(S(=O)(=O)c2cn(C)c3cc(OC)c(OC)cc3c2=O)cc1 | 3.2
C=CCc1cc(Cl)ccc1OCCCNC(C)CC (stereo unspecified) | 4.45
Clc1cc(Cl)c2nc(N3CCCC3)sc2c1 | -2.46
Cc1ccc2c(c1)N(CC(=O)NCCCN1CCOCC1)C(=O)c1cccnc1O2 | -4.11
CCN(CC)CCCn1c(=S)[nH]c2cc(Cl)ccc2c1=O | -5.64
COc1cc(CN2CCNC(=O)C2CC(=O)N(C)CCCN2CCOCC2)cc(OC)c1 (stereo unspecified) | -16.3
Cc1oc(-c2ccc(Cl)cc2)nc1CN1CCCN(C(=O)c2ccco2)CC1 | 17.2
CCN1CCN(C(=O)c2ccc(Cn3c(=O)[nH]c4cc(OC)c(OC)cc4c3=O)cc2)CC1 | -11.9
CC1=C(C(=O)NC(C)c2ccc3c(c2)OCCO3)C2(CCC(C)CC2)OC1=O (stereo unspecified) | -8.12
COC(=O)c1cc(NC(=O)Cc2ccccc2[N+](=O)[O-])cc(C(=O)OC)c1 | -8.41
Cc1ccc(S(=O)(=O)c2nc(-c3ccc(F)cc3)oc2SCC(=O)NCC2CCCO2)cc1 (stereo unspecified) | -3.3
Cn1c2c(c(=O)n(C)c1=O)C(C(F)(F)F)(C(F)(F)F)N=C(CCC1CCCCC1)N2 | 11.6
Cc1ccccc1N1CCN(C2CCCN(C(=O)CCC3(C)CC3)C2)CC1 (stereo unspecified) | 2.97
CCCN1CC23C=CC(O2)C(C(=O)O)C3C1=O (stereo unspecified) | -5.08
Cc1cc(N2CCOCC2)nc2ccc(NC(=O)CCC(=O)N3CCC(C)CC3)cc12 | -4.85
C/C(=N\NC(=O)c1ccncc1)c1c(O)n(-c2ccccc2)c(=O)[nH]c1=O | 53.8
CC(Cc1cccs1)NC(=O)CCCn1nnnc1CN1CCOCC1 (stereo unspecified) | -5.49
OCCN1CCN(c2nc(-c3ccccc3)c3cc(Br)ccc3n2)CC1 | 69.4
Cc1cc(=O)[nH]c(N/N=C/c2cccs2)n1 | 1.34

SMILES | inhibition [%]
COc1cc(NC(=O)C2CCCCC2)c(OC)cc1NC(=O)CN1CCCCC1 | 25.7
Fc1ccc(COc2ccc(Br)cc2CNCc2ccncc2)cc1 | 9.77
CCOC(=O)C1CCN(c2ccc(C(N)=O)cc2[N+](=O)[O-])CC1 | 42.2
COc1ccc(-c2cc(-c3n[nH]c(=S)n3-c3cc(OC)ccc3OC)[nH]n2)cc1 | -8.22
O=C(Nc1nnc(SCc2ccc(Cl)cc2Cl)s1)C1COc2ccccc2O1 (stereo unspecified) | -1.24
COc1ccc(NCC(=O)N/N=C/C=C\c2ccccc2)cc1 | 89.9
Cc1ncc(CN2CCCC(C(=O)Nc3ccc(-c4cccc(F)c4)cc3)C2)n1C (stereo unspecified) | 5.41
CCN(c1ccccc1)S(=O)(=O)c1cc2c(cc1C)n(C)c(=O)c(=O)n2C | -14.8
Cc1ccccc1NS(=O)(=O)c1ccc2c3c(cccc13)C(=O)N2C | 14.6
Cc1cc(C(=O)N/N=C/c2cn(C)nc2C)c2ccccc2n1 | 2.89
Cc1nn(-c2ccccc2)c(Cl)c1/C=N/NC(=O)c1nn(C)cc1[N+](=O)[O-] | 3.65
CCCSc1nnc(Cn2c(=O)sc3ccccc32)n1-c1ccccc1 | -0.92
COc1ccc(C(=O)N2CCN(S(=O)(=O)c3ccc(Cl)cc3)CC2)cc1OC | -2.04
CCN(CC)S(=O)(=O)c1cccc(NC(=O)/C=C/c2ccc([N+](=O)[O-])cc2)c1 | 3.02
COc1ccccc1CNC(=O)CNC(=O)c1sc2ccccc2c1Cl | -4.17
COc1cccc(-c2n[nH]c(=S)n2Cc2ccco2)c1OC | -13.4
O=C(CSc1nnc(CNC(=O)c2ccccc2)o1)NCc1ccc2c(c1)OCO2 | 4.78
CC1CCN(C(=O)COC(=O)Cc2c[nH]c3ccccc23)CC1 | -7.49
CC(=O)c1sc(N/N=C\c2ccc(N(C)C)cc2)nc1C | 18.3
CCCCOC(=O)CCn1[nH]c(=O)c2ccccc2c1=O | -7.81
O=c1oc2ccc(Cl)cc2cc1-c1ccccc1 | -5.78
Nc1nnc(SCCCC(=O)c2ccc(F)cc2)s1 | -2.25

SMILES | inhibition [%]
CCOC(=O)c1c(/N=C/c2cccc([N+](=O)[O-])c2O)sc(C)c1C | -3.04
Nc1ncnc2c1c(-c1ccc(Oc3ccccc3)cc1)cn2C1CCCC1 | -4.72
CC(C)(O)CC[C@H](OC(=O)c1ccccc1)[C@](C)(O)[C@H]1CC[C@@]2(O)C3=CC(=O)[C@@H]4C[C@@H](O)[C@H](O)C[C@]4(C)C3CC[C@]12C (stereo partly specified) | -2.48
CCOCCOC(=O)c1[nH]c2c(c1C)C(=O)CC(c1ccc(N(C)C)cc1)C2 (stereo unspecified) | 4.62
O=C(Nc1ccc(-n2ccc(C(F)(F)F)n2)cc1)c1cccs1 | 37.9
CSc1nnc(-c2ccc(NC(N)=S)cc2)o1 | 7.18
CCOC(=O)COn1c(-n2nc(C)cc2C)nc2ccccc2c1=O | 92.5
O=C(COC(=O)c1ccccn1)Nc1nccs1 | -0.23
CSc1ccccc1OCc1cc(C(=O)N2C[C@H]3CC[C@H]2C3)no1 | -0.65
N#Cc1cc2c(nc1SCC(=O)Nc1sc3c(c1C#N)CCC3)CCCCC2 | -2.02
COc1ccc(CNS(=O)(=O)c2ccc3c(c2)C(C)(C)C(=O)N3C)cc1 | -1.03
COC(=O)c1c(NC(=O)C2CC=CCC2C(=O)O)sc(C)c1C (stereo unspecified) | -0.15
Cc1sc2nc(CSCC(=O)Nc3ccccc3C#N)[nH]c(=O)c2c1C | -0.53
O=C(CSc1n[nH]c(=O)n1C1CC1)c1ccc2c(c1)OCCO2 | 42.6
Cc1ccc(NC(=O)CCS(=O)(=O)c2ccc3nc(C)sc3c2)cc1 | -12.9
CCc1c(C)c(C#N)c2nc3ccccc3n2c1NCCN(C)C | -0.14
O=C(Nc1ccc2oc(-c3ccc(Cl)c(Cl)c3)nc2c1)c1ncn[nH]1 | 50.6
Cc1ccc(-c2noc(C3CCN(S(=O)(=O)c4ccc5c(c4)OCCO5)CC3)n2)o1 | 3.56
